The list shows a part of the results. These are noisy estimates, calculated here from bound and input reads.
biological target: T1, Pho4 (S. cerevisiae) (UniProt P07270); assay: relative binding free energy (BET-seq); higher = weaker binding; conditions: reference: library average
T1 sequence: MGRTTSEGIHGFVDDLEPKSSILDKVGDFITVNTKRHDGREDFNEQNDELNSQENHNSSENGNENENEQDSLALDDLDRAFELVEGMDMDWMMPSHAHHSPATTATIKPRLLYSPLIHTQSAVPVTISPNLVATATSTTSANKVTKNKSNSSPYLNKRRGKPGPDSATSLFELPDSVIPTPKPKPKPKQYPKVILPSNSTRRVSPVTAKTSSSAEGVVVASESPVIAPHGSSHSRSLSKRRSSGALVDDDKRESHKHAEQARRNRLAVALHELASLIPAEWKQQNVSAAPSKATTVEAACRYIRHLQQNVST

Sequence | relative binding free energy [kcal/mol]
TGGAGCACGTGCCAGG | -0.1
GTATGCACGTGCCGGG | -0.06
GCGGTCACGTGAGTGG | 0.38
TCAGACACGTGGTATT | 0.06
TAATACACGTGAGGTA | 0.15
GAGGACACGTGATTAG | 0.28
GATGTCACGTGGCGGG | 0.08
ATGGCCACGTGGGCTT | -0.15
GGACTCACGTGAGTTT | 0.48
TGGGTCACGTGATTTA | 0.21
GGAGTCACGTGTGCTA | 0.21
ATAGGCACGTGTTAGT | -0.09
TGGTACACGTGTAAGA | 0.19
CGGAGCACGTGGGGCG | -0.27
GTTTGCACGTGTGAGC | 0.14
TTATTCACGTGTAACG | 0.29
AGAGTCACGTGGGTAT | 0.12
CGTGCCACGTGTGAGG | -0.09
GTAAACACGTGGGTTA | -0.02
AAAGGCACGTGCTGGG | -0.11
ATATTCACGTGTGGTA | 0.3
TTATTCACGTGTATCT | 0.22
TTAGCCACGTGTAGTA | -0.04
AAGGGCACGTGTGCGG | -0.13
AAGTGCACGTGAGGTT | 0.2
GCGATCACGTGTAAGG | 0.3

Sequence | relative binding free energy [kcal/mol]
AGAGACACGTGGTAGT | -0.01
GTTTTCACGTGAGGAG | 0.33
GTTGTCACGTGGTTGC | 0.16
GTGTTCACGTGTTGGC | 0.39
GCTTTCACGTGTTCTT | 0.3
TGGTACACGTGGAAGC | 0.21
GGTCGCACGTGGGATG | -0.09
AGGGACACGTGTCGAG | 0
TGATTCACGTGAAGAT | 0.4
TCGAGCACGTGGGTGG | -0.16
AGTAGCACGTGTATGC | -0.08
TCTTGCACGTGATGCG | 0.13
TGGCGCACGTGTCGAG | 0.09
GTGGGCACGTGTCATT | -0.14
TCTAACACGTGTAGGG | 0.13
GTTTCCACGTGAGGTA | 0.39
GGGAGCACGTGACGGA | -0.01
TTTTCCACGTGTTGCT | -0.04
TGAGTCACGTGGGCTT | -0.04
GCCGGCACGTGTGGTA | 0.04
GGCTGCACGTGGTAGA | -0.06
TGAGTCACGTGCGATG | 0.15
TTGTTCACGTGTTCCT | 0.23
TTGTACACGTGATATG | 0.15
GACTGCACGTGATGGT | 0.13
AAATGCACGTGTGTGA | 0.01

Sequence | relative binding free energy [kcal/mol]
GATGTCACGTGGTTTA | 0.15
CCTTTCACGTGGTTTG | 0.29
TATGACACGTGCTGTA | 0
TTGTTCACGTGGGTCG | 0.1
AGTGCCACGTGTTTGG | -0.18
GACTTCACGTGGTAAG | 0.5
CTTGCCACGTGTTGTG | -0.2
GGTTACACGTGGGATC | 0.01
GTGAACACGTGCAGGT | 0.08
GCGGTCACGTGTCAGG | 0.06
CGGCTCACGTGAGGCG | 0.42
ATCAGCACGTGTTTTA | -0.09
TATGGCACGTGACGAG | 0.13
GCTGACACGTGTGGGA | 0.18
TGATACACGTGAGTGG | 0.33
CGAGTCACGTGCTTTG | 0.24
TCGGTCACGTGATGTA | 0.24
GAGTTCACGTGATTCG | 0.44
TTAGGCACGTGAAGTA | 0.21
CGGGGCACGTGGCTTA | -0.18
GTGTCCACGTGGGGTT | -0.09
CTTAACACGTGGGGTG | -0.33
GTTAACACGTGGAGTG | -0.11
TGCGTCACGTGACTGG | 0.17
ATAGACACGTGTTGGA | -0.06
GGTCGCACGTGGGGAA | -0.02

Sequence | relative binding free energy [kcal/mol]
GAGATCACGTGGGATT | 0.23
TGGTACACGTGGATTT | 0.12
ACAGTCACGTGTGGGT | -0.07
TGTGTCACGTGTTGCA | 0.04
TTGGTCACGTGTCTTA | 0.03
GTCAGCACGTGGTGCG | -0.07
AGTCTCACGTGGGGCG | 0
TTGCGCACGTGGTAAA | -0.17
ACGCGCACGTGGAGGG | -0.23
TAGGTCACGTGGAGCA | 0.06
AAGCGCACGTGGCGGG | -0.32
TTGTGCACGTGTCTCG | 0.01
TGTCGCACGTGGTTGT | -0.11
CTAAGCACGTGTTTTG | -0.19
TTATGCACGTGAAAAT | 0.37
ATGGTCACGTGCTTTT | 0.18
AGGTTCACGTGCAGGA | 0.13
GCTGGCACGTGGTGAT | -0.09
GTAATCACGTGGGCGT | 0.04
TGGGGCACGTGAGCCG | 0.14
ATTATCACGTGGATTA | 0.16
ATTGTCACGTGAAAGT | 0.21
TTATGCACGTGACGTT | -0.11
GTGCTCACGTGTGAGT | 0.27
TAGCTCACGTGAGGGT | 0.29
TAGGCCACGTGGGGGA | -0.22

Sequence | relative binding free energy [kcal/mol]
CTGGGCACGTGGTCAG | -0.26
GATAACACGTGGGATG | -0.07
TGGATCACGTGAAGCT | 0.3
GTGGGCACGTGATTTT | 0.06
TGGTACACGTGTGCGA | 0.08
TCAGACACGTGAGGGG | 0.13
TGTAGCACGTGTGATA | 0.03
TCGTTCACGTGGTTAT | 0.33
CTGTCCACGTGGGGGA | -0.18
ACAGACACGTGTAGGG | 0.13
GTCGGCACGTGCGCGG | -0.05
GTGGTCACGTGGTCTG | 0.16
AATGGCACGTGGGCAT | -0.14
AGCAACACGTGGGGTA | -0.11
TTAGGCACGTGGTTTT | -0.04
CAGGTCACGTGGATGT | 0.03
GGTTACACGTGCTATG | 0.16
TTTTACACGTGCGTAG | 0.13
TTTTTCACGTGAGTAT | 0.36
TAGTACACGTGGAATG | 0.04
AAGCGCACGTGTATGT | -0.04
AGCTTCACGTGGTATG | 0.13
TGTCTCACGTGCTTTT | 0.06
GTCGGCACGTGAATGG | 0.15
CGTCCCACGTGGGGGG | -0.38
TTGTCCACGTGGTATG | -0.01

Sequence | relative binding free energy [kcal/mol]
AATTACACGTGGGAGG | 0.06
GTGTGCACGTGGACTT | 0
TTTGTCACGTGTGGTA | 0.07
TGTAGCACGTGGATCG | 0.07
GGTTGCACGTGATAGA | 0.15
GTATGCACGTGGTACT | -0.02
AAATTCACGTGGGTGC | 0.2
GATTCCACGTGAGTGG | 0.31
GTTCGCACGTGGCTAG | -0.02
TTGGTCACGTGTCTGT | 0.12
TTTTACACGTGTGGTC | 0.21
TAGGTCACGTGGGTCA | -0.02
AGGCACACGTGCGGTG | 0
ATCGTCACGTGTTAGA | 0
TTATTCACGTGTCGAT | 0.31
ATGGGCACGTGTAGGT | -0.17
TGCATCACGTGGCTGG | 0.05
TCGGACACGTGATTTT | 0.17
TCGTGCACGTGTGCTT | -0.1
ATAGTCACGTGCTGGG | 0.01
GGGGTCACGTGATTGA | 0.25
TCAATCACGTGGGTTA | 0.05
TAATTCACGTGTCGGG | 0.32
TAACGCACGTGAGGTT | 0.22
GGCTGCACGTGTTGGC | -0.03
TGGGGCACGTGGCCAT | -0.14

Sequence | relative binding free energy [kcal/mol]
ATATGCACGTGTGCTT | 0.07
CGATACACGTGGTATG | 0.01
TGTGCCACGTGGTAAG | 0.01
ATGGGCACGTGACATG | -0.03
TTTGTCACGTGCGCGA | -0.12
AATAGCACGTGTGGGA | -0.03
TTCGTCACGTGATTGT | 0.2
TAGGACACGTGTATGG | 0.14
TATAACACGTGAATGG | 0.13
GTAGTCACGTGATATT | 0.18
GTGGTCACGTGCAATT | 0.09
TGTGTCACGTGGGCTA | -0.01
CGTATCACGTGGTATG | 0.13
TGGCTCACGTGAAAGG | 0.45
TGTAACACGTGGGTGA | -0.11
AGATGCACGTGGTGCT | -0.16
TTGATCACGTGTTGAC | 0.12
GGCATCACGTGTAGAG | 0.22
GGGGACACGTGCGTCG | 0.04
CAAATCACGTGGTTTT | 0.19
CCGTTCACGTGTGTGT | 0.14
GATTCCACGTGTGTTG | 0.05
ATTTACACGTGGGGAT | 0.11
CGGGGCACGTGCTAGG | -0.2
TTGTTCACGTGTGTGC | 0.35
TTTGGCACGTGTTATC | 0.01

Sequence | relative binding free energy [kcal/mol]
ATGAACACGTGGTGTT | -0.04
CTGGTCACGTGATTGA | 0.21
GGTGTCACGTGGAGCA | 0.04
CGGGTCACGTGGTCGG | 0.09
TTGGACACGTGGAATT | 0.26
GTTGGCACGTGATTGT | 0.05
GACGGCACGTGGTCGG | -0.13
GCTGGCACGTGGGCGG | -0.2
ACTGGCACGTGCGGGT | -0.18
GTCTTCACGTGCGGGG | 0.29
GTGGTCACGTGCTAAT | 0.14
AGATTCACGTGGGATA | 0.33
GAGTTCACGTGAAGGA | 0.51
GGCGGCACGTGAAGGA | 0.15
GTGTGCACGTGATCTG | 0
GGGACCACGTGGAGTG | -0.05
TTGTACACGTGCGATG | 0.06
TGGGGCACGTGCGTTA | -0.31
ATGTTCACGTGGTGCG | 0.19
GGTTTCACGTGATGAC | 0.5
TGATGCACGTGGGGAA | -0.1
CGTGACACGTGCTGGG | -0.09
ATGTTCACGTGCGATA | 0.27
AGAGGCACGTGAGAGG | -0.01
AGGTACACGTGGTGCT | 0
AGATCCACGTGTGAGG | 0.29

Sequence | relative binding free energy [kcal/mol]
CTGCTCACGTGGGGGG | 0.03
TAATTCACGTGTAGGC | 0.24
AAGTTCACGTGAGGGA | 0.42
TGTCGCACGTGATTTG | 0.19
GAGTACACGTGGATTA | 0.27
GAATGCACGTGACGGT | 0.28
TAAGGCACGTGAAGAG | 0.12
CTGGGCACGTGGTGGA | -0.22
GCGTGCACGTGTGCTT | -0.03
CTTTTCACGTGTTTGG | 0.29
TCTGGCACGTGCGTTT | -0.19
AAGTGCACGTGTGACG | -0.04
TATGACACGTGTGTCG | 0.02
TGTGTCACGTGAAAAT | 0.25
TAAGCCACGTGGAGGT | -0.06
GAAATCACGTGGTGTG | 0.08
ATGGTCACGTGGTAGA | -0.02
TAACGCACGTGGGTGA | -0.18
AGTCGCACGTGGAGTA | -0.08
TTAGACACGTGTTTTA | 0.11
GTTTTCACGTGGTTCC | 0.3
AATGGCACGTGAGATA | 0.23

From the BET-seq Pho4 binding data (Le et al. 2018)
